Assay results as given in PubChem BioAssay (NCI).
A structure can be active in one record and inactive in another.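 96-well plates, one dose, 48 hours. Percent growth reported; active if below 10.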 The source holds more than one record for some entries. Only these are listed. An entry can have further records. This drug was run again and again over the years, at its own concentration, as given; one value stands for one run. Marks such as (2×) give the number of equal values in this list.

How the values were obtained:
SK-MEL-28 melanoma = experiment: NCI-60 one-dose screen, 48 h (100 = growth as untreated, 0 = no growth, -100 = all killed); conditions: 2.5 mM
SK-MEL-2 melanoma = experiment: as above; conditions: 2.5 mM

`O=c1[nH]cc(F)c(=O)[nH]1` was tested, and the growth (SK-MEL-28 melanoma; runs of 1992) was “inactive: 27.1, 26.7 (2×), 20.4, 35.7 (2×), 21.7 (2×), 20.3, 39.2, 27.8, 36.2, 38, 37.4, 17.3, 27.4, 30.2, 13, 31.7, 24.2, 29.8 (2×), 32.1, 41.6, 29.4, 24.6, 31.9, 24.9 (3×), 19.9 (3×), 29.7, 30.9, 30.3, 38.9, 28 (2×), 43.9, 23.4, 30.4, 33, 31.5, 43.2, 33.7, 38.8, 28.3, 35.9, 53.1, 27.2, 33.8, 36.7, 114, 23, 43.8, 44.5, 34.5, 39.6, 28.7, 27.9, 16.1, 15.2, 31.4, 30, 30.7, 37.2, 19.1, 62.2, 26.4 (2×), 31, 29.6, 38.6, 43, 17.9, 45.1, 30.1, 18.9, 15.4, 31.8, 43.1, 44.7, 20.5, 36, 16.4, 38.7, 26.2, 31.1, 11.3, 36.4, 10.7, 15.6, 24.4, 20.7, 16.2, 25 (2×), 30.6, 14.4, 27, 16.6, 32.6, 25.7, 25.9, 20, 24.3, 10.6, 54.4, 18.5, 41.5, 14.6% and active: -3.04, 8.68, 5.31, -22.2, 3.48, -37.2, 7.5, 9.47, -10.9, 6.43%”, the growth (SK-MEL-28 melanoma; runs of 1993) was “inactive: 34.1, 31.4, 31.6, 48.8, 33.8, 23.8, 38.1, 26.7, 16.8, 23, 29.9, 40.5, 11.3, 31, 36.6, 38.6, 16.4, 36.5, 36.8 (2×), 44.6, 29.4, 43.4, 25.3, 22.4, 28.2, 21.4, 18, 47, 22, 21.8, 18.5, 87.6, 32.5, 18.7, 97.7, 12.2, 34.2, 16.7, 28.4, 41.6, 37.1% and active: 7.71, -0.7, 9.6, 8.41, 5.18%” and the growth (SK-MEL-28 melanoma; runs of 1994) was “inactive: 24.8, 19.8, 20.8, 24.4, 28.9, 25, 30.9, 39.2, 40.5, 38.1, 34.8, 12.6, 17.1, 18.9, 48.8, 40.8, 46.4, 26, 35.9, 16, 35.8, 39.1, 52.1, 49.6, 42.4, 54.4, 45.3, 39.7, 15.1, 28.1, 22.1% and active: 8.03%, -15.3%”. For the same compound, the growth (SK-MEL-28 melanoma; runs of 1995) was “inactive: 60.6, 21.6, 42.3, 55.5, 32.8, 20.8, 36.6 (2×), 36.3, 25.2, 42.8, 28.1, 43.3, 45, 47.2, 22.5, 31.5, 44.7, 45.1, 52.5, 25.7, 24.7, 40.4, 41.6, 28.5, 48.4, 24.1, 33.5, 36.9, 13.7, 32.2, 35.3, 26, 20.9, 29, 38.8% and active: -0.226%”, the growth (SK-MEL-28 melanoma; runs of 1996) was “inactive: 44.4, 32.1, 44.1, 45.4, 34.8, 25.1, 31.2, 32.7, 28.9, 31.9, 42.2, 30.7, 58.2, 46.4, 43.7, 33.9, 15.2, 36.9, 29.8, 28.6, 45, 35 (2×), 22.6, 38.6, 57.5, 38, 37.6, 36.4, 42.7, 44.3, 47.4, 22.1, 25.6, 41.7, 52, 27.9, 46.8, 50.8, 31.1, 23, 37.1, 71.4, 34.7, 26.2, 37.9, 27.4, 47.8%” and the growth (SK-MEL-28 melanoma; runs of 1997) was “inactive: 29.6 (2×), 47.8, 14.4, 90.3, 43.6, 39.3 (2×), 30.5, 18.1 (2×), 48.5, 37.1, 32.9, 37.9, 13.1 (2×), 32.3, 36, 39.1, 44.6, 42.1, 22.4, 40.1, 32.7, 30.9, 31.5, 22.1, 30, 17.6, 31.7, 20.8, 10.7, 32.4, 23.4, 15.5, 42.8, 31.4, 39% and active: -100, -4.83, 3.6, 1.47, -12.1, 5.04%”. The growth (SK-MEL-28 melanoma; runs of 1998) was “active: -13.2, -5.09, 2.4, -11.3, 1.58% and inactive: 41.7, 27.2 (2×), 28.8, 64.2, 24.4, 26.5, 33.5, 23.3, 19.5, 36.3, 44.5, 27, 21.7, 32.8, 39.7, 40.6, 34.8%”, the growth (SK-MEL-28 melanoma; runs of 1999) was “inactive: 67.9, 41.2, 18.9, 11.1, 47.9, 60.3, 23.1, 15, 14.3% and active: -38.8, 2.15, 2.85, 4.22, 3.23%” and the growth (SK-MEL-28 melanoma; runs of 2000) was “inactive: 12.7% and active: 3.45%, 5.27%, -15.2%”. The growth (SK-MEL-2 melanoma; runs of 1991) was “inactive: 49.3, 35.6, 49, 45.6, 47.6, 41.6, 42.6, 102, 44, 117, 27.8, 22, 31.8, 51.8, 43.9, 46.7, 36.9, 22.6, 19.6, 52.1%”, the growth (SK-MEL-2 melanoma; runs of 1992) was “inactive: 28.6, 26.4, 28.2, 32.9, 70.6, 24.9 (2×), 23.9 (2×), 22.2 (2×), 30.2, 118, 45.4, 26.9, 86.6, 29.6 (2×), 29.7, 26.3, 19.6, 24.5, 25.5, 15.7, 48.8, 51.9, 145, 128, 33.1, 26, 54.3, 33.7 (2×), 22.8, 23.5 (2×), 25, 33, 27.5 (2×), 30.4, 22.5, 39.4, 32.4 (2×), 26.2, 36.6, 44.3, 59.6, 42.8, 35.8, 36.7, 17, 43.7, 41.7, 22.1, 47.7, 37.7, 34, 39.3, 35.5, 28.5, 24.8, 39.6, 29.4, 32.2, 34.8, 28.1, 46.2, 49.9, 39.1, 28.3, 28.9, 23.1, 34.4, 25.8, 15, 30.7, 36.1, 40.6, 23.4, 35.7, 78.6, 43.3 (2×), 44.8, 35.4, 30.6, 42.5, 18, 58, 19.7, 33.5, 21.8, 21.1, 55.3, 34.2, 25.1, 44.2, 57.1% and active: 2.72, 3.46, 6.54, 9.88, -6.94, -5.92, -13.8, -27.7, -9.67, 2.13, 9.19, 2.89, -30.3, 3.29%” and the growth (SK-MEL-2 melanoma; runs of 1993) was “inactive: 28.6, 24.4, 40, 18.2, 17.2, 55.8, 125, 32.3, 25.4, 29.6, 64.8, 29.4, 44.1, 37.5, 12.4, 39.9, 58.6, 17.3, 22.9, 48.2, 36.4, 38.1, 44.2, 32.1, 21, 47.3, 35.2, 41.3% and active: -1.3%, -9.78%”. For the same compound, the growth (SK-MEL-2 melanoma; runs of 1994) was “inactive: 41.3, 75.7, 25.7, 29.8, 12.6, 66.2, 40.5, 43.4, 55.2, 45.1, 52.4, 66.8, 32.3, 19.1, 10.4, 12, 25.3, 25.6, 55.8, 53.2, 53.7, 65, 40.9, 53.9% and active: -0.385%, -7.37%”, the growth (SK-MEL-2 melanoma; runs of 1995) was “inactive: 37.1, 21.6, 17.2, 24.7, 17.7, 28.7, 33.7, 41.9, 26.4, 30, 34.2, 43.4, 27.1, 28.9, 29.3 (2×), 33.4, 58.6, 105, 68.9, 39.7, 40.4, 54.7, 42.1, 52.8, 40.6, 56.7, 75.5, 48, 28.5, 43.6, 64.3, 75.9, 20.1, 43.1% and active: 2.17%” and the growth (SK-MEL-2 melanoma; runs of 1996) was “inactive: 54.5, 34.4 (3×), 57, 51.3, 50.9, 47.4 (2×), 45.9, 40.5, 66.1, 57.5, 31.9, 45, 38.4, 42.2, 34.6, 40.6 (2×), 48.7, 33.7, 39.6, 32.2, 46, 29.9, 55.4, 36.4, 45.7, 44.4, 31.2, 60.1, 61.7, 73.1, 52.6, 34 (2×), 47.7 (2×), 32.7, 53.9, 42.3, 58.9, 51.2, 44.5, 30.8, 54.1, 35, 55.5, 42.4, 49.4, 67.3, 63.3, 67.7, 52.5, 28.5, 36.3, 43.9%”.
